Over roughly 33,000 sequences, “E-score (-0.5 to 0.5)” has its median near -0.013; the highest 2% begin near 0.3. The list shows a part of the results.
Target: T1, Msn1 (UniProt P22148)
T1 sequence: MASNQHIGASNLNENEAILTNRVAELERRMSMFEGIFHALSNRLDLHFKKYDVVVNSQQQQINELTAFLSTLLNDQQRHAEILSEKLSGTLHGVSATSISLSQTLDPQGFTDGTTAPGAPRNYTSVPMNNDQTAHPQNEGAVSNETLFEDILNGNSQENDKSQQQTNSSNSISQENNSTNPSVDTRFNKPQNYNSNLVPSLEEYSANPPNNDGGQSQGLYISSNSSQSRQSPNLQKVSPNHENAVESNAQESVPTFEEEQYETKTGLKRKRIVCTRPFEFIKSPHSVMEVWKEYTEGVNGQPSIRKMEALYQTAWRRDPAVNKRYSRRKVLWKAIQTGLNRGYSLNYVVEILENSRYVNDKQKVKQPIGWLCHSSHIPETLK
Assay: PBM E-score (8-mer binding enrichment) (E-score (-0.5 to 0.5)); higher = stronger / more preferred TF binding; most listed sequences are background and not binding sites
Conditions: protein concentration: 200 nM; construct: GST-full length
Procedure, shortened: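 The E-score, a modified Wilcoxon-Mann-Whitney statistic, was computed by the Universal PBM Analysis Suite for every ungapped eight-base word pooled with its reverse complement. Scans behind it were normalised with masliner after bound GST-tagged yeast transcription factors were detected with fluorescent anti-GST. The proteins, at about 100-200 nM, had been applied to universal all-10-mer Agilent arrays made double-stranded by primer extension.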

Sequence	PBM E-score
GCGGCGTA	-0.174
AACCCCAC	-0.257
GCGACAGC	-0.0585
AAGATGCT	-0.0645
AAGAATGA	0.119
CCCGTCCG	-0.274
ACTCCAGC	-0.217
CCAATCCA	-0.251
AACCTTGT	-0.0697
CAGGGGTA	-0.192
CGCTAGCG	-0.19
ACCACTAG	-0.179
ACCGTCAT	-0.00651
CGGCCCAG	-0.186
CCTCGACG	-0.0823
TCTTCCCA	-0.316
CGTAGGGC	-0.199
AATTGACA	0.139
ACGCCGCA	-0.101
TCCCTCCA	-0.169
CAGCGGTA	0.0912
CATAGAAG	0.0331

Sequence	PBM E-score
AGCCTAGA	-0.217
ATTGTCAA	0.12
AACTAACC	0.0819
ACCTAAGT	0.117
CGAGAGCC	-0.197
CAGTTACC	-0.0176
ACGGGACT	0.0899
GATAAATC	-0.0458
AAAAGCGC	-0.00424
GAAATGGC	-0.165
TCATTCCA	-0.0404
GTGCCGCA	0.149
CAATGGCG	-0.0489
TCGAGGCA	0.0877
AGCTCGAA	0.0691
GCCCACAA	-0.0701
ACGGCACC	-0.185
CATTCCTA	0.112
ACTCCTTA	-0.159
TCGAATCA	-0.0887
AAGTATAA	0.0678
CAGCCGGA	0.186

Sequence	PBM E-score
AATACTGC	-0.0153
CGCTGCAC	-0.0856
GCCGTAAC	-0.116
CTGTTAAA	-0.0535
AAATCGAG	0.0826
ACCAGGGG	-0.383
GGTTTGTA	0.0228
ACTAATAC	0.174
CGGCCTTC	0.00796
CCATGTAC	0.216
GACCCACA	0.0689
ACAATTCG	0.265
AGATGTTC	0.0457
CGGCACAA	-0.0522
AAATCCGC	-0.0186
ATACGAAA	0.215
CCGCCCGA	-0.0838
CAAGCCAC	-0.208
AGACCCTA	-0.246
AAATACGC	0.112
AAGTCTTC	-0.047
ATTCAGCG	-0.0874

Sequence	PBM E-score
CATTTTTC	0.248
AACAATAC	0.158
ATTACAAA	0.302
TCACCACA	0.0982
CAGGTATC	-0.0118
CAGACAGC	-0.0406
GTGCGTAA	0.0253
ACAAGAGC	0.0213
ATGTATTG	0.056
AATTCCTG	0.0411
CTTCGCAC	0.0006
TGGAACAA	0.183
AATGCGCA	0.255
AGTTACGG	-0.182
GTCTCATA	0.204
ATGAACCC	0.0567
CGGGAGCA	-0.083
CACTTTGC	0.0317
GGTGCAGA	-0.22
GCAGCAAC	-0.0666
TATGTCCA	0.465
CTCCCTGA	-0.226

Sequence	PBM E-score
AAGCTAAC	0.0252
ATATTGAG	0.0703
AATTGCCT	0.0989
CCGTCTTC	-0.0391
AGACCCAT	-0.268
ACGGAGAA	-0.0172
CACCAAAG	0.0692
CTACCTGA	-0.185
GATGCAGC	-0.00464
CAATTTCC	0.0903
ATACATCC	-0.0771
CAACTAGG	0.0252
AGCGCTGG	-0.206
AACTTCCA	-0.0459
AATCCATT	0.0469
AGGCCGAT	0.113
CACCACCC	-0.144
CAACCGCA	0.0316
ATGATCTC	0.00785
CGTACTTA	0.142
GACCGCCA	-0.155

Source: the supplement of paper PMC3334620
